Test results: paper PMC6212790
This is one part of the list. At the low end of the ranking, values are background and their order means little.

Biological target: T1, GST-Rok (full length) (UniProt O34857)
T1 sequence: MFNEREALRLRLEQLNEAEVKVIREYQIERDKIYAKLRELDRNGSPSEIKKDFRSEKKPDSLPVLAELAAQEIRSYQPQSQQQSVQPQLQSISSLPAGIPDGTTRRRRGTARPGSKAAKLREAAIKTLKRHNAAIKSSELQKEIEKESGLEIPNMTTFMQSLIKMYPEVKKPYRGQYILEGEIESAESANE
Experiment: protein binding microarray;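 further: rank score from −0.5 (least bound) to 0.5 (best bound)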
Conditions: Rok is a gene silencer of Bacillus subtilis; high values mean tight binding; most listed sequences are background and not binding sites; double strand, one strand shown

Sequence	binding signal [E-score]
ATTGAATG	0.0431
ACCATGTG	-0.159
CAAAGTGC	-0.128
AGAAGATC	-0.079
GGTATCAA	0.0596
AGCTCTTA	0.0963
ACTGAGGC	-0.152
ATAACCAG	0.0111
CCAATTGC	0.145
CAAGATTG	-0.175
ATCGAATA	0.249
AGGCGTCC	-0.275
ATTAGACA	0.121
CAGGCCTA	-0.221
CCGTGAGA	-0.107
CTGTAGCC	-0.221
ATGAACTA	0.0684
CATAACCA	0.0243
GAACTATC	0.292
ATTGGAAC	-0.0148
GAGACCAC	-0.212
AGGTACAA	0.14
TACGTACA	0.262
CAGTAGAA	0.391
AATCATAA	0.21

Sequence	binding signal [E-score]
CGCATGGA	-0.0759
AAAACTCC	0.0005
TGGGGCAA	-0.127
CAAACGGC	-0.0035
GTATGGGA	-0.187
CCTCCAGG	-0.207
CCGCAGGC	-0.214
AAAGTGCT	-0.107
AGCCATCC	-0.175
GACCAAAC	-0.143
CCGTATCC	-0.0374
CGCTACAA	0.0368
AGGGGGTA	-0.29
ACTCCCCA	-0.424
CAATTGTA	0.339
ATGCAGTA	0.319
CCTGTTAG	0.032
TAACTACA	0.441
CACCGACG	-0.169
GAACACTC	-0.0422
CCCTTACG	-0.193
CACACATC	-0.147
AGTAGGAG	-0.135
ACATATGC	0.266
AATAGTAA	0.325

Sequence	binding signal [E-score]
ATGATTAA	0.186
ACTAATGC	0.282
GTCGAATA	0.054
AATTTACC	0.296
AGTCTCAC	-0.131
GCTTGTCC	-0.182
GACAAAGA	0.0143
CCAGGGGC	-0.433
AGGTATAC	0.172
ACTCTTCA	0.0587
ATAATCAA	0.223
GGAGGGAA	-0.283
ATGGCCTA	0.023
CTATAGGC	0.025
CAAGTCAC	-0.0913
ATCAAGAC	0.0172
ACCAGTGG	-0.3
CGCTGCCG	-0.314
CGTTGTAG	0.198
AACAATGT	0.154
CGTTCGGA	-0.107
CCGCCTAC	-0.142
TGCCGAAA	-0.0829
AAGGAGGT	-0.181
AAAAGCCT	-0.315

Sequence	binding signal [E-score]
ATGCTGCG	-0.211
CGGATCAC	0.0266
TAGACGAA	0.0666
ACGAAACA	0.0691
TACGAAAA	0.189
AGTCTGAT	0.155
CAACAAGC	-0.235
CTGACGTC	-0.0753
CAGTCCCC	-0.397
ACCATATC	0.133
GTTAAGGA	-0.0172
AGCCGACA	-0.246
GAGAACAA	-0.119
CGTGGAAA	-0.0946
ATCTCTTG	0.11
GCAGTCCC	-0.303
AACCGCGT	0.00983
ACTCTGAA	-0.0894
GGGATGTA	0.0786
AAGAGCAT	-0.0948
AGGCTGGG	-0.31
AATGCTAT	0.116
CTTACCTC	0.143
CCCAGAAA	-0.0961
ATGGGAAG	-0.191

Sequence	binding signal [E-score]
GATACTTA	0.169
AGATAACA	0.241
CGTAGGTC	-0.245
AGCATGAC	-0.238
CAAGGCTA	-0.206
ACAGTGGT	0.0798
ATTTTAGG	0.0264
ACTGTGCG	-0.0878
CGTTCAAC	-0.109
CGTCACGC	-0.145
ACAACATC	0.046
ACGAGCCT	-0.2
AAATTTAT	0.351
CTAAAGAC	-0.0682
AGTGATTG	-0.118
ATCGTAAG	0.0527
GTCGTTGA	0.00247
ACACTGCA	0.0824
CACGTCAG	-0.171
CGGTTCCC	-0.221
AACTGTAT	0.0995
GTTGCTGA	0.0486
TCCGTACA	0.0484
TCAACGAA	0.0593
AACACGAG	0.0551

Sequence	binding signal [E-score]
AGAGCAGA	-0.0508
GAGGTCAA	-0.102
AAACCAAC	0.0496
CTCAACAC	0.0075
CCAAGAGG	-0.238
CCCATTCA	-0.194
AGCTGACT	-0.0126
CGACATAG	-0.0763
ACTGTCAT	0.0522
CAGTCCGG	-0.216
CCCAATCA	-0.253
AGCATGAA	0.165
GGCTATAA	0.0645
AATCAGTC	-0.0113
CACCGGTC	-0.285
CGAAATCG	0.0939
AGATACCC	0.0127
CAACGAGG	-0.203
AACCACGC	-0.00353
GGCCACAA	-0.145
TGCAGGCA	-0.092
TAACGTGA	0.0823
CAAAACAG	0.0797
GATTCCCA	-0.0135
GATGTTGC	0.0134

Sequence	binding signal [E-score]
AACGTCCG	-0.14
CACAGGGA	-0.179
ATCTCGTA	0.144
ACATGCGC	-0.215
CAAAACAA	-0.114
GTTATTCA	0.0398
AAGCAAAG	-0.0562
ATTAAGAG	0.0989
GGGTCCCA	-0.347
AGACGTTG	-0.292
AGGCCCGC	-0.175
GGGAGTTA	-0.018
AGGCGCTG	-0.161
GATAGCTA	0.35
AGGTAGTG	0.0916
AGACAATG	-0.0492
CACGATTC	0.0284
TTTACAAA	0.3
ACCCGGTA	0.283
ACAGTCTC	-0.103
GGGATATA	0.221
AGTGGATC	0.0173
